Measurements as given in patent US20060263299A1, “Effect of substances on sexual function” (priority 2005, published 2006).
Values joined by “and” are separate entries in the source; they are usually repeats but may differ in a detail not shown here. Identical values can stand only once.

How the values were obtained:
[1] = test system: patients; settings: clinical studies from the literature; cited from earlier work
[2] = test system: male Sprague-Dawley rats; assay: Non-contact penile erections in sexually experienced male rats in the presence of receptive females after antidepressant treatment; type: in vivo, rat; settings: for mean number of non-contact penile erections: 30 min session, mean+sem; for decrease in the number of non-contact penile erections relative to vehicle-treated animals: time course studies (FIGS. 3-5), corresponding vehicle group
Method: The doses of the antidepressants evaluated in the present studies were selected based on the reported efficacious dose ranges of these drugs in preclinical models predicting antidepressant-like activity in rats including olfacoty bulbectomy studies and forced swim test experiments (Reneric et al., 1998; West et al., 1998; Joly and Sanger, 1986). […] On the day of behavioral testing, antidepressants were administered intraperitoneally (i.p.) as one hour pretreatments. For reversal experiments, apomorphine (Sigma; St. Louis, Mo.) was dissolved in 0.9% sterile saline vehicle and injected subcutaneously in a volume of 1 ml/kg. […] 17B-estradiol benzoate and progesterone were purchased from Sigma (St. Louis, Mo.).
(§1) Data are presented as group means±sem. For statistical analysis, data was subjected to one way analysis of variance (ANOVA) with a least significant difference (LSD) post-hoc test as appropriate. Statistical significance was achieved when p<0.05.
Intact male Sprague-Dawley rats (Charles River Laboratories) arrived at 7 weeks of age and were allowed to habituate for one week prior to sexual experience or behavioral testing. Rats were group housed in same-sex colony rooms with food and water provided ad libitum. All animals were maintained under a 12:12 light-dark cycle (lights on at 6:00 am) with behavioral experiments performed during the light hours beginning at noon.
Ovariectomized female Long-Evans rats (Charles River Laboratories) were individually housed and brought into behavioral estrus weekly by subcutaneous injection of 25 ug 17-B estradiol benzoate in 0.1 ml corn oil 48 hours prior to testing, followed by subcutaneous administration of 2.5 mg progesterone in 0.1 ml corn oil 4-6 hours before testing.
For subjects assigned into the sexually experienced group, the following procedures were performed. Individual male rats were placed into a cage with a sexually receptive female for overnight mating sessions. The mating chamber which was the housing chamber of the female mating partner, was a Plexiglas cage measuring 10×12 inches, with food and water ad libitum. Mating pairs were randomly assigned. […] Following overnight mating sessions, males and females were separated from each other and placed back into same-sex colony rooms where they were group-housed until the time of behavioral testing.
(§2) To determine the effects of female stimuli on non-contact penile erections, sexually receptive females were brought into the testing room one hour prior to the start of behavioral testing in order to provide female visual, olfactory, and auditory stimuli for males. The testing arena for observing non-contact penile erections in male rats consisted of an empty rat size Plexiglas cage (11×10 inches) containing no bedding, with an aerated plastic lid and a total ceiling height of 12 inches. […] A penile erection consisted of observation of the male rat in a hunched position grasping the penis with the forepaws and followed by a series of pelvic thrusts. The number of penile erections were quantified over a 30 minute observation session.

[3] = Locomotor activity observed during the non-contact penile erection test; settings: bupropion 20 mg/kg/day i.p. for 7 and 14 days (subchronic and chronic)
[4] = test system: male Sprague-Dawley rats; assay: Reversal of fluoxetine-induced deficits in non-contact penile erections by co-administered agents; type: in vivo, rat; settings: for mean number of non-contact penile erections: mean+sem
Method: On the day of behavioral testing, antidepressants were administered intraperitoneally (i.p.) as one hour pretreatments. For reversal experiments, apomorphine (Sigma; St. Louis, Mo.) was dissolved in 0.9% sterile saline vehicle and injected subcutaneously in a volume of 1 ml/kg. […] 17B-estradiol benzoate and progesterone were purchased from Sigma (St. Louis, Mo.).
as §1, §2
In a similar study, the ability of additional substances to reverse (or at least partially reverse) the effects of antidepressant-induced sexual dysfunction was evaluated. Sildenafil citrate (available as VIAGRA from Pfizer Inc. of New York, N.Y.), yohimbine and dopamine agonists were studied in the foregoing manner.

[5] = acute (1 day) treatment i.p., fluoxetine/desipramine 10 mg/kg, bupropion 20 mg/kg
[6] = chronic (14 day) treatment i.p., fluoxetine/desipramine 10 mg/kg/day, bupropion 20 mg/kg/day
[7] = chronic (14 day) treatment i.p.
[8] = subchronic (7 day) treatment i.p., fluoxetine/desipramine 10 mg/kg/day, bupropion 20 mg/kg/day

SMILES: CC(NC(C)(C)C)C(=O)c1cccc(Cl)c1 (stereo not shown) [bupropion, (.+−.)-1-(3-chlorophenyl)-2-[(1,1-dimethylethyl)amino]-1-propanone]
- patients reporting sexual dysfunction / impairment in sexual function [1]: 14%
- mean number of non-contact penile erections [2, 5]: 0.50+0.22
- effect on penile erections (in words) ([2]; acute treatment): significant reduction in the number of penile erections
- decrease in the number of non-contact penile erections relative to vehicle-treated subjects ([2]; acute treatment i.p., desipramine 10 mg/kg, bupropion 20 mg/kg): 57%
- mean number of non-contact penile erections [2, 6]: 1.63+0.57
- decrease in the number of non-contact penile erections relative to vehicle-treated animals [2, 7]: 7%
- reduction in the number of non-contact penile erections relative to vehicle-treated controls [2, 8]: 11%
- mean number of non-contact penile erections [2, 8]: 2.00+0.50
- increased locomotor activity / hyperactivity [3]: not observed

SMILES: CNCCCN1c2ccccc2CCc2ccccc21 [desipramine]
- mean number of non-contact penile erections [2, 5]: 1.00+0.33
- effect on number of penile erections over time (in words) ([2]; acute, subchronic and chronic treatment): reduction in the number penile erections acutely and consistently over time
- mean number of non-contact penile erections [2, 6]: 1.00+0.46
- decrease in the number of non-contact penile erections relative to vehicle-treated controls ([2]; chronic (14 day) treatment i.p., FIG. 2 comparison, vehicle n=14 (1.79+0.32)): 44% and 43%
- decrease in the number of non-contact penile erections relative to vehicle-treated animals [2, 7]: 43%
- reduction in the number of non-contact penile erections relative to vehicle-treated controls [2, 8]: 60%
- mean number of non-contact penile erections [2, 8]: 0.75+0.31

SMILES: CNCCC(Oc1ccc(C(F)(F)F)cc1)c1ccccc1 (stereo not shown) [fluoxetine, N-methyl-3-(p-trifluoromethylphenoxy)-3-phenylpropylamine]
- patients reporting sexual dysfunction / impairment in sexual function [1]: 73%

SMILES: COC(=O)[C@@H]1[C@H]2C[C@H]3c4[nH]c5ccccc5c4CCN3C[C@@H]2CC[C@@H]1O [yohimbine]
- ability to reverse the effects of fluoxetine on non-contact penile erections (in words, FIG. 7) ([4]; co-administered with fluoxetine (over 14 days)): reverse to effects of the fluoxetine is demonstrated

SMILES: CN1CCc2cccc3c2[C@H]1Cc1ccc(O)c(O)c1-3 [apomorphine]
- mean number of non-contact penile erections ([4]; acute apomorphine 0.03 mg/kg s.c. co-administered with chronic (14 day) fluoxetine 10 mg/kg/day i.p.): 2.57+0.69
- mean number of non-contact penile erections ([4]; acute apomorphine 0.03 mg/kg s.c. co-administered with chronic (14 day) saline vehicle i.p.): 3.00+0.38
- reversal of the number of non-contact penile erections relative to acute vehicle+chronic fluoxetine treated group ([4]; acute apomorphine 0.03 mg/kg s.c. with chronic fluoxetine, P=0.0622): 51.4%
- mean number of non-contact penile erections ([4]; acute apomorphine 0.1 mg/kg s.c. co-administered with chronic (14 day) fluoxetine 10 mg/kg/day i.p.): 2.88+0.61
- mean number of non-contact penile erections ([4]; acute apomorphine 0.1 mg/kg s.c. co-administered with chronic (14 day) saline vehicle i.p.): 4.13+0.35
- reversal of the number of non-contact penile erections relative to acute vehicle+chronic fluoxetine treated group ([4]; acute apomorphine 0.1 mg/kg s.c. with chronic fluoxetine, P<0.05): 56.5%
- number of non-contact penile erections compared with acute vehicle+chronic vehicle treated subjects (in words) ([4]; acute apomorphine 0.03 or 0.1 mg/kg s.c. with chronic saline vehicle): not different from acute vehicle+chronic vehicle treated subjects
